Experimental data from PMC12040169 (PLOS Biology, 2025).
The list shows a part of the results.

These compounds were tested on T1, C. trachomatis L2/434/Bu expressing GFP (CTL2-GFP). Conditions: total inclusion area; 28.5 h, 10 µM; inhibitor.
T1 construct: L2/434/Bu GFP intracellular growth in HeLa cells
Parameters: species or system HeLa; C. trachomatis total inclusion area by high-content imaging, normalised to DMSO
Outline: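 Post-fluorescence-read fixation, DNA staining with Hoechst and high-content imaging; GFP inclusion area and number per well, and nuclei counts, used as proxies for bacterial growth and host viability.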
In the case of `COc1cccc(-c2nc(C3CCN(CCc4ccc(F)cc4)CC3)n3ccccc23)c1` [CBK035373], the “% of control remaining” value is reported as 94.1702. With `CCS(=O)(=O)N1CC2CCCC(O)(c3ccc(F)cc3)C2C1` (stereo not drawn) [CBK284363] the “% of control remaining” value was 68.5343. In the case of `CC1(C)NC(=O)N(CC(O)Cn2c3ccccc3c3ccccc32)C1=O` (stereo not drawn) [CBK304318], the “% of control remaining” value is reported as 73.1096. For `CCOC(=O)Cn1ncc2c3sc(C)cc3n(C)c2c1=O` [CBK282388], the “% of control remaining” value was 105.665. For `CC(C)(C)N1C(=O)c2ccc(C(=O)Nc3ccccc3C(=O)O)cc2C1=O` [CBK287004], the “% of control remaining” value was 95.4598. In the case of `CCCc1[nH]nc(O)c1-c1cccc2ccccc12` [CBK075125], the “% of control remaining” value is reported as 85.8537. With `CC(C)(C)OC(=O)N1CCN(c2cc(Cl)nc(N)n2)CC1` [CBK003505] the “% of control remaining” value was 16.7514. `CC(=O)N1CCc2nc(NC(=O)c3cccs3)sc2C1` [CBK282680] was tested, and the “% of control remaining” value was 111.84. `O=C(c1cccs1)n1ccc(-c2ccc3c(c2)CCO3)n1` [CBK006090] was tested, and the “% of control remaining” value was 95.3328. For `CC1(OCc2ccccc2)SC(NC2CCCCCC2)=NC1=O` (stereo not drawn) [CBK105606], the “% of control remaining” value was 36.4718. In the case of `COc1ccc(C)cc1NC(=O)CSc1nc(C)cc(C(F)(F)F)n1` [CBK270205], the “% of control remaining” value is reported as 98.0408. For `COCCNC(=O)N1CCN(Cc2ccccn2)CC1` [CBK304817], the “% of control remaining” value was 77.1868. `COc1ccc(-c2nc3ccccn3c2CN2CCC(C(=O)O)CC2)cc1OC` [CBK287063] was tested, and the “% of control remaining” value was 100.464. In the case of `CC(=O)NCc1cccc(-c2cc(COc3ccc4c(c3)OCO4)cnc2-c2ccc(Cl)cc2)c1` [CBK164106A], the “% of control remaining” value is reported as 77.771. In the case of `O=C(NCCN1CCOCC1)c1cc(-n2cnnc2)ccc1Cl` [CBK268023], the “% of control remaining” value is reported as 106.994. `CC1CCN(C(=O)CC(NC(N)=O)c2cccc(Br)c2)CC1` (stereo not drawn) [CBK305788] was tested, and the “% of control remaining” value was 43.3206. For `Cc1ccn(CCNC(=O)c2cc3cccc(C)c3nc2C)n1` [CBK282645], the “% of control remaining” value was 124.959. In the case of `CS(=O)(=O)NC1CCCCC1` [CBK012234], the “% of control remaining” value is reported as 41.8592. In the case of `O=C(NCC(F)(F)F)c1cnc(-c2ccc(Cl)cc2)c(-c2ccco2)c1` [CBK037468], the “% of control remaining” value is reported as 86.598. For `Cc1cc(C)nc(NC(=O)c2cccc(Cl)c2)n1` [CBK288165], the “% of control remaining” value was 83.1341. In the case of `c1ccc(COc2ccc3[nH]c4c(c3c2)CCNC42CCCN(CC3CC3)C2)cc1` (stereo not drawn) [CBK040619], the “% of control remaining” value is reported as 42.9016. For `CC(C)(C)c1ccc(OCc2nc(N)c3c(N)n[nH]c3n2)cc1` [CBK008565], the “% of control remaining” value was 88.472. For `Cc1nn(C)c(C)c1C(=O)Nc1sc2c(c1C#N)CCC(C)C2` (stereo not drawn) [CBK304645], the “% of control remaining” value was 1.188. For `O=C(O)CCC(=O)CCC(=O)c1cccs1` [CBK264807], the “% of control remaining” value was 90.3496. `CC(C)CCNC(=O)c1ccc(N2CCN(C(=O)c3ccccc3C(F)(F)F)CC2)nn1` [CBK153222] was tested, and the “% of control remaining” value was 68.5729. `O=C(O)CC(C(=O)Nc1ccccc1)C1CCCO1` (stereo not drawn) [CBK286809] was tested, and the “% of control remaining” value was 104.553. `Cc1nn(Cc2ccc(F)cc2)c2sc(C(=O)NCc3ccc(S(N)(=O)=O)cc3)cc12` [CBK295181] was tested, and the “% of control remaining” value was 76.6236. With `COc1cc(OC)nc(C(NC(=O)C2CCN(CCN3C(=O)c4ccccc4C3=O)CC2)c2ccc(F)cc2)n1` (stereo not drawn) [CBK148083] the “% of control remaining” value was 94.8025. In the case of `COc1ccc(Br)cc1/C=C/C(=O)NC(=S)Nc1cc(C(=O)O)ccc1Cl` [CBK265564], the “% of control remaining” value is reported as 90.1325. With `C=C(C)Cn1c(SCC(C)C)nnc1-c1scc(C)c1Cl` [CBK200095] the “% of control remaining” value was 94.9195. For `N#Cc1ccccc1NC(=O)NCCC1=CCCCC1` [CBK044365], the “% of control remaining” value was 85.722. With `O=C(O)CCc1ccc(-c2cccs2)n1-c1ccc(C(=O)O)cc1` [CBK266016] the “% of control remaining” value was 98.3845. For `Nc1n[nH]c2nc(-c3ccccc3)c3c(c12)CCC3` [CBK288178], the “% of control remaining” value was 76.6741. With `Cc1nn(C)cc1-c1cncn1C(C)c1ccc2c(c1)CCCO2` (stereo not drawn) [CBK281798] the “% of control remaining” value was 121.566. In the case of `Cc1ccc2nc(COC(=O)c3cc(-c4ccccc4)nn3-c3ccccc3)cc(=O)n2c1` [CBK296959], the “% of control remaining” value is reported as 84.0395. For `O=C1CCCN1c1ccc(S(=O)(=O)NCC2CC3CCC2C3)cc1` (stereo not drawn) [CBK282841], the “% of control remaining” value was 105.14. With `O=C(C1=C(O)C(=O)N(CCCN2CCOCC2)C1c1cccs1)c1cccs1` (stereo not drawn) [CBK264533] the “% of control remaining” value was 117.505. For `Cn1c(C(=O)NCCc2cnccn2)cc2cc(Cl)ccc21` [CBK281575], the “% of control remaining” value was 101.252. `CCN(CC)C(=O)C1CCCN(C(=O)NCc2ccc3c(c2)OCO3)C1` (stereo not drawn) [CBK156121] was tested, and the “% of control remaining” value was 84.1592. In the case of `Cc1nc(C)c(S(=O)(=O)Nc2ccccc2-c2nnnn2C(C)C)s1` [CBK305508], the “% of control remaining” value is reported as 72.2914. `COC(=O)c1ccc(NC(=O)c2ccccc2-c2ccccc2C(=O)O)cc1` [CBK265759] was tested, and the “% of control remaining” value was 51.0682. `Nc1c(-c2cccc(C(F)(F)F)c2)cnc2cccnc12` [CBK081187] was tested, and the “% of control remaining” value was 106.295. In the case of `O=C1CC(C(=O)Nc2ccccc2)NC(Nc2cc(Cl)cc(Cl)c2)=N1` (stereo not drawn) [CBK268752], the “% of control remaining” value is reported as 94.974. With `Cc1cc(F)c(S(N)(=O)=O)cc1NC(=O)c1ccc(C(F)(F)F)cc1` [CBK051448] the “% of control remaining” value was 108.365. `COc1cccc(NC(=O)CSc2ccc(Cl)cc2)c1` [CBK263811] was tested, and the “% of control remaining” value was 81.9674. For `NC(=O)CCNC(=O)N1CCc2ccccc2C1` [CBK155288], the “% of control remaining” value was 122.947. `COc1ccccc1CC(=O)N1CCC(Cc2cccc(-c3cccs3)c2)(C(N)=O)CC1` [CBK285743] was tested, and the “% of control remaining” value was 99.7588. With `CC(=O)N1CCC(Cn2nc(-c3ccc(F)cc3)ccc2=O)CC1` [CBK282406] the “% of control remaining” value was 93.0598. With `COc1ccccc1-c1cc(N2CCN(CC(=O)N(C)c3ccccc3)CC2)ncn1` [CBK091136] the “% of control remaining” value was 163.677. With `CN(Cc1ccccc1)c1nccnc1-c1cccnc1` [CBK037414] the “% of control remaining” value was 94.7903. `O=C(C[C@@H]1O[C@H](CNS(=O)(=O)c2ccccc2)[C@@H](O)[C@H]1O)N1CCCC1` [CBK288909] was tested, and the “% of control remaining” value was 110.164. In the case of `CCN1CCCCC1CNC(=O)Cn1nc(C)cc1C` (stereo not drawn) [CBK282057], the “% of control remaining” value is reported as 90.3617. For `O=C(Nc1ccc(O)cc1)c1cnc(-c2ccc(Cl)cc2)c(-c2cccnc2)c1` [CBK037516], the “% of control remaining” value was 132.118. In the case of `S=c1[nH]cc(-c2ccc(Br)cc2)o1` [CBK288498], the “% of control remaining” value is reported as 56.1214. For `CC(C)C(C(=O)O)N1C(=O)C2C3C=CC(C3)C2C1=O` (stereo not drawn) [CBK286535], the “% of control remaining” value was 84.9192. `CSCCN1CCN(c2nccnc2OCCN2C(=O)CCC2=O)CC1` [CBK084301] was tested, and the “% of control remaining” value was 87.8245. `CCCOC(=O)N(O)c1ccc(Cl)c(Cl)c1` [CBK288400] was tested, and the “% of control remaining” value was 25.1259. With `CCn1c2cc(C)sc2c2cnn(CC(=O)NC(C)C)c(=O)c21` [CBK284172] the “% of control remaining” value was 66.5855. In the case of `COc1ccc(/C=N/NS(=O)(=O)c2ccc(C)cc2)cc1CSc1ccccn1` [CBK263036], the “% of control remaining” value is reported as 87.2221. With `CS(=O)(=O)N1CCc2cc(-c3cc4ccccn4c3)ccc21` [CBK285256] the “% of control remaining” value was 77.23. With `CC(=O)N1CCN(C(=O)c2nn(-c3ccc(F)cc3)c3c2CCCCC3)CC1` [CBK295293] the “% of control remaining” value was 103.663. For `Cc1ccc(S(=O)(=O)N2CCN(C(c3ccccc3)c3ccccc3)CC2)cc1[N+](=O)[O-]` [CBK293949], the “% of control remaining” value was 107.325. For `Cn1nc(NC(=O)c2cnccn2)c2c(N3CCOCC3)cccc21` [CBK306716], the “% of control remaining” value was 83.9281. With `COc1ccc([C@@H]2CCN(C(=O)Cc3ccc(F)cc3)C[C@H]2O)cc1` [CBK283709] the “% of control remaining” value was 87.677. With `Cc1ccc(-c2nnc(CNC(=O)C(c3ccccc3)c3ccccc3)o2)s1` [CBK286299] the “% of control remaining” value was 111.085. `Oc1cccc(-c2cc(CC3(NCc4cnc5ccccc5c4)COC3)no2)c1` [CBK289662] was tested, and the “% of control remaining” value was 81.0081. For `O=C(Cc1c[nH]c2ccccc12)Nc1cnc(-c2cccc(OC(F)(F)F)c2)c(-c2cccnc2)n1` [CBK036863], the “% of control remaining” value was 138.081. In the case of `COc1ccc(NC(=O)CC2SC(NC3CCCCC3)=NC2=O)c(OC)c1` (stereo not drawn) [CBK059502], the “% of control remaining” value is reported as 77.6073. With `COc1cc(-c2cncc(NCc3cccc(Cl)c3)n2)cc(OC)c1OC` [CBK065284] the “% of control remaining” value was 89.2525. With `CCC(=O)N1C[C@@H](N(C)C)[C@H](c2cn(C)c3ccccc23)C1` [CBK285008] the “% of control remaining” value was 117.28. For `CCN(C(=O)Cn1c(=O)cc(C)c2ccccc21)C1CCN(C)CC1` [CBK281871], the “% of control remaining” value was 111.88. In the case of `Cc1ccc(-c2csc(NC(=O)c3cccnc3)n2)cc1` [CBK072677], the “% of control remaining” value is reported as 51.6493. With `COCC(=O)N1CCc2sccc2C1c1ccc(NC(=O)c2ccccc2F)cc1` (stereo not drawn) [CBK286469] the “% of control remaining” value was 103.502. In the case of `Nc1ncc(-c2ccncc2)nc1NC1CCCCC1` [CBK063604], the “% of control remaining” value is reported as 83.9491. `O=S(=O)(c1ccccc1)N(CC(O)CN1CCCC1)c1cccc2ccccc12` (stereo not drawn) [CBK264464C] was tested, and the “% of control remaining” value was 104.832. `Cc1cc(CNC(=O)CCn2ccc(C)n2)on1` [CBK281485] was tested, and the “% of control remaining” value was 96.8107. With `Cn1nc(C(F)(F)F)c(C#N)c1Oc1ccc(C(C)(C)C)cc1` [CBK007398] the “% of control remaining” value was 28.5975. In the case of `COc1ccccc1[C@@H]1C[C@H](OC(=O)c2ccc(F)cc2)C(=O)N1C` [CBK283598], the “% of control remaining” value is reported as 87.713. In the case of `Cc1ccc(Cc2cnc(NC(=O)c3ccoc3C)s2)cc1C` [CBK298277], the “% of control remaining” value is reported as 71.0519. In the case of `CC(Cc1cccs1)NC(=O)C(C)n1ccnc1` (stereo not drawn) [CBK282050], the “% of control remaining” value is reported as 94.6753. In the case of `Cn1cc(C2CCCN2C(=O)c2cccc(C#N)c2)cn1` (stereo not drawn) [CBK304849], the “% of control remaining” value is reported as 34.9606.
